# PubChem BioAssay AID1362 (SRMLSC, 2008)
# The other results are listed elsewhere or left out. Further columns of the screen follow, without active or inactive calls. Compounds called inactive in the main read-out are mostly missing here.
# Test: growth inhibition of WT strain, primary screen, mitochondrial fusion inhibitor project, WT and mutant strains, chemical genetic (AID 1362); also: tested in S. cerevisiae
# Conditions: mitochondrial fusion phenotypic screen, at 10 µM
row,Structure (SMILES),inhibition [%]
1,O=C(C[n+]1cn(C(F)F)c2ccccc21)c1ccc(OC(F)F)cc1,65.2
2,CNC(=S)/N=C/NOCc1ccc(Cl)cc1Cl,57.7
3,COCCN(C(=S)Nc1c(C)cc(C)cc1C)C(C)c1cccs1 (stereo not given),-6.11
4,COC(=O)c1ccc2c(c1O)C(=O)c1ccccc1C2=O,50.9
5,CC(C)Nc1nc(Oc2cccc(Cl)c2Cl)cc(C(F)(F)F)n1,16.8
6,O=C(Nc1ccc(Cl)cc1)c1csc(Cc2ccccc2)n1,26.1
7,COC(=O)c1c(NC(=O)CN2CCC3(O)CCCCC3C2c2cc(OC)ccc2OC)sc(C)c1C (stereo not given),7.03
8,CN(c1ccccc1)S(=O)(=O)c1ccc(NC(=S)NC(=O)C2CC2)cc1,53.1
9,Cn1c(=O)n(CCc2ccccc2)c(=O)c2c1nc1n2CCCN1CCc1ccccc1,17.2
10,C=C(C)CNC(=S)NN=C1c2ccccc2-c2ccccc21,67.3
11,O=C(Nc1cc(Cl)ccc1Oc1ccccc1)c1ccc(F)cc1,-6.87
12,COc1ccc(N/C=C/C(=O)c2ccc(Oc3ncccn3)cc2)cc1,-11.5
13,CC(c1cccs1)N(Cc1ccco1)C(=S)Nc1ccc(F)c(Cl)c1 (stereo not given),49.7
14,CCN1CCN(c2cc(C(C)(C)C)nc3c(-c4ccccc4)c(C)nn23)CC1,87.3
15,Cc1ccc(OCc2n[nH]c(=S)n2-c2ccccc2)cc1C,9.45
16,CCOC(=O)CSc1n[nH]c(-c2cccnc2)n1,-4.35
17,FC(F)(F)c1cnc(Sc2nc3nccc(-c4ccc(Cl)cc4)n3n2)c(Cl)c1,11.7
18,CCCC[C@@H]1CNC(=S)N1CCc1cccc(F)c1,55.1
19,COc1ccc(OCCC(=O)N2CCCCC2)cc1,7.1
20,c1ccc(CC2CCN(c3nnnn3-c3ccccc3)CC2)cc1,5.33
21,CC(C)C(NC(=O)C12CC3CC(CC(C3)C1)C2)C(=O)NC1=NCCS1 (stereo not given),14.3
22,CCOc1ccccc1N1CCN(C(=O)Nc2ccc(Cl)c(Cl)c2)CC1,1.93

row,Structure (SMILES),inhibition [%]
1,Cc1ccc(C(=O)N(CCCN(C)C)c2nc3ccc(Cl)cc3s2)cc1C,89.4
2,CC#C[C@]1(O)CC[C@H]2[C@@H]3CCC4=CC(=O)CCC4=C3[C@@H](c3ccc(N(C)C)cc3)C[C@@]21C,9.53
3,Cc1ccc(C(=O)Nc2ccc(S(=O)(=O)NCc3ccco3)cc2)cc1,36.8
4,Cc1ccc2c(C(=O)N3CCN(c4ccccc4)CC3)cc(-c3cccnc3)nc2c1C,37.5
5,Cn1c(=O)[nH]c(=O)c2c1nc(Br)n2CCSc1ncccn1,6.35
6,CCc1ccc(OC)c(-c2csc(N)n2)c1,57.1
7,c1ccc(-c2nnc(-c3ccccn3)nc2NC2CCCCC2)cc1,61.5
8,O=C(Nc1nc(-c2cc(Cl)sc2Cl)cs1)c1cccs1,56.4
9,Cc1ccc(C(C(=O)NC(C)(C)C)N(Cc2cccs2)C(=O)c2ccc3c(c2)OCCO3)cc1 (stereo not given),22.6
10,COc1cccc(N2CCN(c3ncnc4c3[nH]c3ccc(F)cc34)CC2C)c1 (stereo not given),72.7
11,CCCCNCC#CCOc1cc(C)ccc1C(C)C,61.2
12,CC1=NN(c2ccc(C)cc2C)C(=O)C1C(c1ccccc1)C1C(=O)N(c2ccc(C)cc2C)N=C1C (stereo not given),-1.61
13,O=C(Nc1ccc2c(c1)nc1n2CCN(Cc2ccccc2)C1)c1cccs1,-11.9
14,Cc1nc2ccc(NC(=O)c3nn(CC(C)C)c(=O)c4ccccc34)cc2s1,-2.73
15,Cc1cccc(OCCCC(=O)Nc2ccc(N3CCCCC3)cc2)c1C,24.3
16,COC(=O)c1cc(NC(=S)Nc2cc(Cl)cc(Cl)c2)cc(C(=O)OC)c1,61.1
17,Cc1cc(C)nc(Nc2n[nH]c(-c3ccc(N)cc3)n2)n1,17.5
18,Cc1ccc2sc(N(CCCN(C)C)C(=O)c3nc4ccccc4s3)nc2c1C,36.9
19,COc1ccccc1-c1cc(C(F)(F)F)nc(NCc2cccs2)n1,-5.43
20,COc1ccc(Nc2nc(NC(C)(C)C)nc(N3CCCC3)n2)c(OC)c1,67.7
21,O=C(NCc1ccc2c(c1)OCO2)c1ccc(-c2ccc(Cl)cc2)o1,37.9
22,CC1CCN(c2ccccc2NC(=O)c2ccc(F)cc2)CC1,46.6

row,Structure (SMILES),inhibition [%]
1,CCCOP(=O)(OCCC)C(Nc1cccc(C(F)(F)F)c1)c1ccc(C)cc1 (stereo not given),22.5
2,Cc1ccccc1NS(=O)(=O)c1ccc(NC(=O)CSCc2ccc(Br)cc2)cc1,25.8
3,Cc1oc2c(c1C(=O)NCc1cccnc1)C(=O)c1ccccc1C2=O,87.5
4,O=C1C(Cl)=C(NC2CCCCC2)C(=O)N1Cc1ccccc1,-5.4
5,Clc1ccc(/C=N/NC(=Nc2ccccc2)c2ccccn2)c(Cl)c1,73.6
6,Cc1ccc(-n2cc(CN3CCC(CO)(Cc4cccc(C(F)(F)F)c4)CC3)cn2)cc1,88.3
7,CCOc1ccc(CSCCNC(=S)Nc2ccccc2)cc1,54
8,N=c1c2c(n(Cc3ccc(F)cc3)c3c1CCC3)CCC2,20.5
9,O=C(Nc1cccc(F)c1)c1ccc(-c2ccccc2Cl)o1,46.5
10,COc1ccc(Nc2nc(C)c(-c3ccccc3)s2)cc1,13.7
11,Cc1ccc(C(=O)NCc2ccc(N3CCN(C(=O)OC(C)(C)C)CC3)cc2)cc1,4.38
12,O=C(NC(=S)Nc1ccc(Cl)cn1)C12CC3CC(CC(C3)C1)C2,40.5
13,Cc1cc(C)n(-c2nc(C)nc3c2cnn3-c2ccccc2)n1,2.55
14,Cc1ccc2cc(/C=N/Nc3nc4ccccc4[nH]3)c(Cl)nc2c1,45.3
15,Cc1nc(N(C)Cc2ccccc2)c2nnn(Cc3ccccc3)c2n1,48.1
16,O=C(NNc1ccc(C2CCCCC2)cc1)C(O)(c1ccccc1)c1cccs1 (stereo not given),83.6
17,OC(COc1ccc2ccccc2c1Br)Cn1cnc(-c2ccccc2)c1 (stereo not given),70
18,CCCc1nc(SCC(=O)N2CCCc3ccccc32)c2c(=O)n(C)c(=O)n(C)c2n1,26.7
19,COC(=O)CN1C(c2ccc(Cl)cc2)=Nc2ccc(Cl)cc2C1c1ccccc1 (stereo not given),34.3
20,CCCNC(=S)N1CCN(C(c2ccccc2)c2ccccc2)CC1,34.6
21,Cc1cccc(C)c1NC(=O)CN(C)CC(=O)Nc1ccccc1Br,16.7
22,CCOP(=O)(OCC)C(Nc1cccc(C(F)(F)F)c1)c1ccc(Br)cc1 (stereo not given),-2.21

row,Structure (SMILES),inhibition [%]
1,Cc1nc(-c2ccccc2)sc1-c1nc(-c2ccncc2)ncc1S(=O)(=O)c1ccccc1,11.3
2,Cc1cccc(Nc2nc(NCc3ccco3)c3ccccc3n2)c1,94
3,O=c1[nH]ncc(N2CCN(C(c3ccccc3)c3ccccc3)CC2)c1Cl,36.2
4,CCOC(=O)c1cnc2ccc(OC)cc2c1Nc1ccc2c(c1)OCCO2,58.6
5,O=C(Nc1ccccc1C(=O)N/N=C/c1ccncc1)c1ccccc1,73.5
6,NC(=S)N/N=C/c1ccccc1OCCSc1ccc(Cl)cc1,8.63
7,CC(C)(C)c1cc(/C=N/O)cc(C(C)(C)C)c1O,29.7
8,N=c1c2c(n(Cc3ccc(Cl)cc3)c3c1CCC3)CCC2,26
9,O=C(Nc1ncc(Cc2ccccc2Cl)s1)C1=NCCN1,67.9
10,O=C(Oc1cccc2c(O)cccc12)c1ccccc1,45.1
11,O=C(Nc1cc(S(=O)(=O)N2CCCCC2)ccc1Cl)c1ccccc1NS(=O)(=O)c1ccc(F)cc1,22
12,CCC(C)c1ccc(NC(=S)Nc2ccc(OC)c(OC)c2)cc1 (stereo not given),4.7
13,CCN1CCN(CCNC(=O)c2ccc(/C=C3/Sc4ccccc4N(Cc4ccccc4C)C3=O)cc2)CC1,22.1
14,Cc1ccc(NC(=S)NCCc2ccccc2)c(C)c1,60
15,Cc1ccc2c(c1)c1c3n2CCCN(Cc2ccccc2)C3CCC1 (stereo not given),78.1
16,Cc1ccc2nc(N(CCCN(C)C)C(=O)CCc3ccccc3)sc2c1,91.4
17,CC(C)Cc1cc(C(=O)N2CCN(C(c3ccccc3)c3ccccc3)CC2)no1,34.2
18,S=C(N/N=C1\CCc2ccccc21)NC1CCCCC1,66.5
19,O=C(O)C1CCCCC1C(=O)Nc1ccc(F)cc1F (stereo not given),9.23
20,Cc1ccc(S(=O)(=O)c2nc(Nc3nccs3)sc2Cl)cc1,15.7
21,Cc1ccc(NC(=S)NC(C)CCc2ccccc2)cc1C (stereo not given),44.7
22,NC(N)=N/N=C/c1ccc(OCc2ccccc2Cl)cc1,60.6

row,Structure (SMILES),inhibition [%]
1,COc1cccc(CN2CCN(C(=S)NCc3ccc(Cl)cc3)CC2)c1,63.8
2,c1ccc2c(-c3c[nH]c4ccccc34)c3ccccc3nc2c1,26.1
3,COc1ccc(C)cc1NC(=O)c1ccccc1NS(=O)(=O)c1ccc(Cl)s1,70.8
4,Cn1cc(C(=O)c2ccc(Cl)cc2Cl)cc1C(=O)O,8.15
5,COc1ccccc1NC1=C(Cl)C(=O)N(C2CCCCC2)C1=O,1.23
6,S=C(Nc1ccccc1Cl)N(Cc1ccccc1)Cc1ccccn1,24.2
7,Cc1[nH][nH]c(=O)c1C(c1c(C)[nH][nH]c1=O)c1cn(Cc2ccccc2Cl)c2ccccc12,6.08
8,O=c1cc(C(Cl)(Cl)Cl)oc2c1ccc1ccccc12,54.2
9,CCN(CC)S(=O)(=O)c1cnccc1N1CCN(c2cccc(Cl)c2)CC1,16.5
10,COc1cc(C(=O)OC2CC3CCC2(C)C3(C)C)ccc1OC(C)=O (stereo not given),23.1
11,S=C(NCc1ccco1)N1CCN(C(c2ccccc2)c2ccccc2)CC1,15
12,CCOCC(=O)Nc1cc(C(F)(F)F)ccc1Oc1cccc(Br)c1,19.6
13,COc1ccc(N=Nc2nc3cc(Br)c(Br)cc3n2C)c(OC)c1,30.6
14,CCCCCCc1cc2cc(C(N)=O)c(=N)oc2cc1O,74.7
15,CCCC12CN3CCN(CC(C3)/C1=N\NC(=O)c1ccc(C(C)(C)C)cc1)C2,8.86
16,O=C1/C(=C/c2cccc3ccccc23)CCCc2ccccc21,-11.9
17,Cc1ccccc1Nc1cc2ccccc2c(=O)[nH]1,44.7
18,S=C(NCCc1ccc(Cl)cc1)NC1CCCC1,46.3
19,CCOC(=O)c1c(C)oc2c1c(CN1CCN(CCO)CC1)c(O)c1ccccc12,52.1
20,COCCNC(=O)c1cccc(Nc2nc(-c3ccccc3)c3cc(Cl)ccc3n2)c1,8.57
21,CCCC[C@@H]1CNC(=S)N1CCc1cccc2ccccc12,65.3
22,CC(Cc1cccs1)NC(=S)Nc1ccc(Cl)cc1 (stereo not given),62.7
